Results published in PubChem BioAssay AID686970 (National Center for Advancing Translational Sciences (NCATS), 2013).
Screen size: about 360,000 compounds; about 6,000 (1.7%) were called active. Inconclusive results, whose numbers are uncertain, are shown with a selection of clear calls. The call rests on the fitted dose curve; in most records, active means well fitted cell-killing curve with a large enough effect; inconclusive means small, poorly fitted or top-dose-only effect, or effect the other way; inactive means flat fitted curve, though single readings scatter. No potency is given beside an inconclusive call; the fits are too rough.

Assay: qHTS for induction of synthetic lethality in tumor cells producing 2HG: qHTS for the HT-1080-NT fibrosarcoma cell line;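 further: NT is the 2HG producing partner of a matched IDH1 knockdown line; nearly all actives have a fitted effect of over 55% in size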;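 on activity, negative = less viability: 0% = DMSO-treated cells and -100% = media-only wells without cells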
Conditions: HT-1080-NT fibrosarcoma viability, CellTiter-Glo ATP luminescence, 48 h; activity, negative = less viability: at 46.1 µM (top of the series) unless noted
Method in brief: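 HT-1080-NT; 750 cells/well; 5% FBS RPMI; 48 h compound, 37 degrees C; CellTiter-Glo luminescence; curve fitting and curve-class assignment.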
Potency means the concentration at half of the fitted maximal effect; tags describe the fitted curve by direction and shape.

| SMILES | Potency | activity, negative = less viability |
| --- | --- | --- |
| Clc1cccc(-c2nnc(SC/C=C/c3ccccc3)n2Cc2ccco2)c1 | inconclusive [cytotoxic, single point] |  |
| COc1ccc(S(=O)(=O)N2CCCC2CNC(=O)C(=O)Nc2ccc(C)cc2)cc1 (configuration not stated) |  | inactive: -4.61% |
| Cc1ccc(C#CC[N+](C)(C)CC#Cc2ccccc2)cc1 | inconclusive [cytotoxic, full curve, poor fit] |  |
| COc1ccccc1CNC(=O)C1CC2Cn3c(nc4cc(Cl)c(Cl)cc43)C2N1C (configuration not stated) | inconclusive [cytotoxic, single point] |  |
| COCCNC(=O)c1cnn2c(C(F)(F)F)cc(-c3ccc(C)cc3)nc12 |  | inactive: 1.41% |
| O=C(Nc1cccn(Cc2c(F)cccc2Cl)c1=O)NC1CCCCC1 | inconclusive [cytotoxic, single point] |  |
| CCC(=O)n1nc(-c2cccnc2)nc1NCc1ccc(F)cc1 | inconclusive [rising, single point] |  |
| COc1c(Cl)cc(C(=O)Nc2ccccc2-c2ccccc2)cc1Cl |  | inactive: -0.186% |
| CCOC(=O)Cn1cc(C(=O)c2ccco2)c2ccccc21 |  | inactive: -11.9% |
| CC1=Nc2ccccc2/C1=C\c1sc(Nc2ccc(C)cc2)nc1O | active: 0.92 µM |  |
| Cc1cccc(C)c1NC(=O)CN(Cc1ccccc1)Cc1ccccc1 | inconclusive [cytotoxic, single point] |  |
| COc1ccc(N=Cc2c(OC)ccc3ccccc23)cc1 | inconclusive [cytotoxic, partial curve] |  |
| O=C(N/N=C/c1ccco1)c1ccc(NC(=O)c2ccccc2Cl)cc1 | inconclusive [cytotoxic, single point] |  |
| O=C(N/N=C/c1ccc(O)cc1)c1cccc(N/N=C/c2ccc(O)cc2)c1 | inconclusive [cytotoxic, partial curve] |  |
| O=C(Cc1ccccc1[N+](=O)[O-])Nc1ccccc1C(=O)N1CCCC1 | inconclusive [rising, single point] |  |
| COc1ccc(Cl)cc1-c1cc(C(=O)Nc2ccc(Br)cc2)[nH]n1 | inconclusive [cytotoxic, single point] |  |
| CCOC(=O)c1c(C)nc2c(c1C)/C(=N/O)CC(C)(C)C2 | inconclusive [cytotoxic, single point] |  |
| Cc1cccc(NC(=O)c2ccc(C(=O)Nc3cccc(C)c3)nc2)c1 | inconclusive [cytotoxic, single point] |  |
| COc1ccc(NC(=O)C2(C)Cc3c(-c4cccc(C(F)(F)F)c4)ccnc3O2)cn1 (configuration not stated) | inconclusive [cytotoxic, partial curve] |  |
| Cc1ccc(-c2nnc(-c3cccc(NC(=O)c4cccs4)c3)o2)cc1 |  | inactive: -1.58% |
| CC(C(=O)Nc1ccc(C#N)cc1)N(C)CC(=O)Nc1ccccc1Br (configuration not stated) | inconclusive [cytotoxic, partial curve] |  |
| C=CCN(CC=C)S(=O)(=O)c1ccc2nc(NC(=O)C(C)C)sc2c1 | active: 3.66 µM |  |
| C/C(=N\NC(=O)c1ccccc1NC(=O)c1ccc(Cl)cc1)c1ccncc1 | active: 0.517 µM |  |

| SMILES | Potency | activity, negative = less viability |
| --- | --- | --- |
| CC(C)N=C(NS(=O)(=O)NC(=O)c1ccccc1)c1ccccc1 | inconclusive [rising, single point] |  |
| NS(=O)(=O)c1cccc(NC(=O)CSc2nc3ccccc3n2-c2ccccc2)c1 | inconclusive [cytotoxic, partial curve, poor fit] |  |
| CCc1nc2ccc(C(=O)NC3CCN(Cc4ccccc4)CC3)cn2c1N(C)Cc1cccs1 | inconclusive [cytotoxic, single point] |  |
| Cc1ccc(S(=O)(=O)N(C)c2ccc(OC(=O)CN3C(=O)NC4(CCCC4)C3=O)cc2)cc1C |  | inactive: -0.437% |
| O=C(CCN1CCN(c2ccccc2F)CC1)Nc1cccc(F)c1 |  | inactive: 4.84% |
| Cc1cc(-c2ccc(C(C)C)c(S(=O)(=O)N3CCN(c4ccccc4)CC3)c2)on1 | active: 1.46 µM |  |
| Cc1cc(Cl)ccc1N=C1N=C(N)c2ccccc21 | active: 23.1 µM |  |
| COc1ccccc1CNc1nc(Nc2ccc(C)cc2C)c2sccc2n1 | active: 20.6 µM |  |
| C/C(=N\N(c1ccccc1)c1ccccc1)c1ccc(O)cc1 | inconclusive [cytotoxic, single point] |  |
| CC1(C(=O)NC2CCN(Cc3ccccc3)CC2)CCN1Cc1ccc(OC(F)(F)F)cc1 (configuration not stated) | inconclusive [cytotoxic, single point] |  |
| COc1cc(C(=O)N2CC(C)OC(C)C2)c([N+](=O)[O-])cc1OC (configuration not stated) |  | inactive: 0.246% |
| CC(C)C[C@H](NC(=O)c1[nH]cnc1C(=O)N[C@@H](Cc1ccccc1)C(=O)OC(C)(C)C)C(=O)OCc1ccccc1 | inconclusive [cytotoxic, single point] |  |
| CCN=C1S/C(=C\c2cc(OCC)c(O)cc2Br)C(=O)N1CC | active: 18.4 µM |  |
| O=C(c1ccc(NS(=O)(=O)c2cccc(C(F)(F)F)c2)cc1)N1CCCC1 |  | inactive: 3.56% |
| Cc1cc(Nc2cccc(Cl)c2)nc(NCc2ccccc2)n1 | inconclusive [cytotoxic, single point] |  |
| Cc1ccc(-c2cc(-c3cccc(F)c3)n[nH]2)c(O)c1 | inconclusive [cytotoxic, single point] |  |
| CCOC(=O)N1CCC(NC(=O)C2CCCN(C(=O)c3cc4sccc4n3C)C2)CC1 (configuration not stated) |  | inactive: 8.28% |
| COc1ccc(/C=N/NC(=O)c2ccc(NC(=O)C3CCCCC3)cc2)cc1O | inconclusive [cytotoxic, single point] |  |
| O=C(Nc1nc(-c2ccccc2)cs1)C1CCCCN1S(=O)(=O)c1ccccc1 (configuration not stated) | inconclusive [cytotoxic, single point] |  |
| CCCCNC(=O)C[C@@H]1C[C@@]2(C(=O)OC)CCCCC=C2N(Cc2ccc(Cl)cc2Cl)C1=O | inconclusive [cytotoxic, single point] |  |
| O=C(N/N=C/c1c[nH]c2ccccc12)c1ccc2c(c1)OCCO2 | inconclusive [cytotoxic, partial curve] |  |
| CC1(CCc2ccccc2)NC(=S)N(c2ccccc2)N1 (configuration not stated) | inconclusive [cytotoxic, partial curve] |  |
| COc1ccc(C)cc1Nc1n[n+](-c2ccccc2)c(-c2c(Cl)cccc2Cl)s1 | inconclusive [cytotoxic, single point] |  |

| SMILES | Potency | activity, negative = less viability |
| --- | --- | --- |
| Cc1ccc(NC(=O)c2c(C)nc(Nc3nc4ccccc4o3)nc2C)cc1 | inconclusive [cytotoxic, single point] |  |
| COc1ccc(O)c(/C=N/NC(=O)c2cccc(N3CCCC3=O)c2)c1 | inconclusive [cytotoxic, full curve] |  |
| Cc1nn(-c2ccccc2)c(C)c1NC(=O)COc1ccc(Br)cc1Cl | inconclusive [cytotoxic, single point] |  |
| O=C(CN1c2ccccc2Sc2ccccc21)NNC(=O)Nc1cccc(Cl)c1 | active: 18.4 µM |  |
| CCCCn1nnnc1C(c1cc2ccccc2o1)N1CCN(c2ccncc2)CC1 (configuration not stated) | inconclusive [cytotoxic, single point] |  |
| Cc1nc2ccccc2n2c(O)c(CC(=O)O)cc12 | inconclusive [cytotoxic, single point] |  |
| NC(=O)c1cccc(-c2ccnc3c2CC(C(=O)NCc2cccc(Cl)c2)O3)c1 (configuration not stated) | inconclusive [cytotoxic, partial curve] |  |
| Cc1ccc(NC(=O)c2cc([N+](=O)[O-])ccc2NCc2cccnc2)cc1Cl |  | inconclusive: -32.6% [cytotoxic] |
| CC(=O)c1ccc2c(c1)C1C=CCC1C(c1cc3c(cc1Br)OCO3)N2 (configuration not stated) | active: 5.8 µM |  |
| CC(O)(CS(=O)(=O)Cc1ccccc1Cl)C(=O)Nc1cccc(C(F)(F)F)c1 (configuration not stated) | inconclusive [cytotoxic, single point] |  |
| O=C(NC(c1ccc(Cl)cc1)c1ccccn1)C1CCN(CCOc2ccc(Cl)cc2Cl)CC1 (configuration not stated) | inconclusive [cytotoxic, single point] |  |
| O=[N+]([O-])c1ccccc1NC(=S)N/N=C/c1ccc(O)c(O)c1 | inconclusive [cytotoxic, single point] |  |
| Cc1ccc(N=C(NOCc2ccc(Cl)cc2Cl)c2nonc2N)c(C)c1 | inconclusive [cytotoxic, single point] |  |
| O=C(Nc1ccc(N2CCCCC2)c(Cl)c1)c1cccnc1 | inconclusive [cytotoxic, partial curve] |  |
| CCc1ccc(N2C=C(C(=O)OC)C(c3cccc4ccccc34)C(C#N)=C2N)cc1 (configuration not stated) | inconclusive [cytotoxic, single point] |  |
| COc1ccc(NC(=O)CN(C)C(=O)CCC2CCCC2)cc1 |  | inactive: 8.13% |
| CC(C)n1cc(/C=C2\NC(=O)N(c3cccc(Cl)c3)C2=O)c2ccccc21 | inconclusive [cytotoxic, single point] |  |
| CCCCc1c(-c2ccccc2OC)ncn1Cc1ccc(-c2ccccc2)cc1 | inconclusive [cytotoxic, single point] |  |
| CC(C)CCOC(=O)C1C(c2ccccc2)C(C(=O)O)C1c1ccccc1 (configuration not stated) | active: 7.31 µM |  |
| O=C(c1cc(-c2ccco2)on1)N1CCN(C(c2ccccc2)c2ccccc2)CC1 | inconclusive [cytotoxic, full curve, poor fit] |  |
| Nc1ccc(Cc2nc3c(ccc4ccccc43)[nH]2)cc1 | inconclusive [cytotoxic, single point] |  |
